Measurements published in PubChem BioAssay AID504832 (National Center for Advancing Translational Sciences (NCATS), 2011).
Out of some 310,000 compounds screened, about 18,000 (5.8%) were called active. Inconclusive results, whose numbers are uncertain, are shown with a selection of clear calls. The call rests on the fitted dose curve; in most records, active means well fitted inhibition curve with a large enough effect; inconclusive means small, poorly fitted or top-dose-only effect, or another doubt; inactive means no such curve, though single readings can be large or run the other way. Potencies of inconclusive entries are left out as doubtful fits.

Test: Primary qHTS for delayed death inhibitors of the malarial parasite plastid, 48 hour incubation
Details: P. falciparum luciferase growth in erythrocytes; series mostly up to 28.7 µM; activity change, negative = inhibition: at the top concentration
In short: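 In quantitative HTS format, infected erythrocytes bearing luciferase-reporter parasites were treated for a single generation at 37 C. Luminescence after adding detection reagent served as the growth measure.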
On the % scale 0 is the no-effect control and ±100 the full control effect; potency means the concentration at half of the fitted maximal effect; tags describe the fitted curve by direction and shape.

Row | SMILES | Potency | activity change, negative = inhibition
1 | NS(=O)(=O)c1ccc(CCNC(=O)C2CCN(S(=O)(=O)c3c(Cl)cccc3Cl)CC2)cc1 | inconclusive [inhibitor, partial curve] | –
2 | CCOC(=O)c1cnc(-c2ccccc2)nc1-c1ccccc1 | inconclusive [inhibitor, single point] | –
3 | O=c1ccc(-c2nc3ccccc3n2Cc2ccccc2Cl)c[nH]1 | – | inactive: -33.5%
4 | O=C(c1ccc(Cl)cc1)c1cc([N+](=O)[O-])ccc1N1CCOCC1 | inconclusive [inhibitor, partial curve, poor fit] | –
5 | COc1ccc(NC(=O)c2c(-c3c(Cl)cccc3Cl)noc2C)cn1 | inconclusive [inhibitor, partial curve] | –
6 | O=S(=O)(c1ccccc1)c1cnn(-c2ccccc2)c1-c1ccc(Cl)cc1 | active: 11.7 µM | –
7 | Cc1ccc(C)c(NC(=O)C(Sc2nc3ccccc3c(=O)n2CC(C)C)c2ccccc2)c1 (stereo unspecified) | active: 3.7 µM | –
8 | CCOC(=O)CSc1nc2ccc(C)cc2[nH]1 | inconclusive [inhibitor, partial curve, poor fit] | –
9 | COC(=O)CC1=C(C(=O)OC)C2(C(=O)Nc3c(C)cccc32)C(C#N)=C(N)O1 (stereo unspecified) | inconclusive [inhibitor, single point] | –
10 | S=C(c1ccc2c(c1)OCO2)N1CCCCC1 | inconclusive [inhibitor, partial curve, poor fit] | –
11 | CCOC(=O)c1c(-c2ccc(C)s2)csc1N | – | inactive: -27.7%
12 | CCCc1cc(=O)n2[nH]c(C)c(-c3ccc(OC)cc3)c2n1 | – | inactive: 55.5%
13 | Cc1nc(N2CCN(S(=O)(=O)c3ccccc3C#N)CC2)c2c(-c3cccs3)csc2n1 | inconclusive [inhibitor, partial curve] | –
14 | O=C(CNC(=S)NC(=O)c1ccccc1)c1ccccc1 | – | inactive: 62.8%
15 | Cc1ccc(C2=NN(C(=O)CCCC(=O)O)C(c3ccco3)C2)cc1 (stereo unspecified) | inconclusive [inhibitor, single point] | –
16 | COc1ccc(C(C(O)C(=O)c2c[nH]c3ccccc23)N2CCN(c3ccccc3)CC2)cc1 (stereo unspecified) | inconclusive [inhibitor, partial curve] | –
17 | Cc1ccc(OCCCCn2ccnc2)c([N+](=O)[O-])c1 | inconclusive [inhibitor, single point] | –
18 | Cc1ccccc1NC(=O)c1cccc(S(=O)(=O)N2CCCCC2)c1 | – | inactive: 1.96%
19 | Cc1ccc(CNC(=O)c2ccc(N3CCC4(CC3)CC(c3ccccc3)=NO4)c(NC(=O)c3ccco3)c2)cc1 | inconclusive [inhibitor, full curve, poor fit] | –
20 | CCN(CC)CCCNC(=S)N1CCN(c2nc3ccccc3n2CC)CC1 | inconclusive [inhibitor, full curve, poor fit] | –
21 | O=C(O)c1ccc(C2SCC(=O)N2Cc2ccco2)cc1 (stereo unspecified) | inconclusive [inhibitor, full curve] | –
22 | O=C(c1ccccc1CCc1ccccc1)N1CCN(c2ccccn2)CC1 | inconclusive [inhibitor, single point] | –
23 | COc1ccc(NC(=O)NNC(=O)COc2ccc3ccccc3c2)cc1 | – | inactive: 17.3%
24 | O=C(NCc1ccccc1F)c1ccc2c(c1)OCCO2 | – | inactive: 42.3%

Row | SMILES | Potency | activity change, negative = inhibition
25 | COc1cc2c3c(c1)C(C)CC(C)(C)N3C(=O)C2=O (stereo unspecified) | inconclusive [inhibitor, partial curve, poor fit] | –
26 | C/C(=N\NC(=S)NC(C)C)c1ccc(Cl)c([N+](=O)[O-])c1 | inconclusive [inhibitor, single point] | –
27 | N=c1c(S(=O)(=O)c2ccc(F)cc2)cc2c(=O)n3ccccc3nc2n1CC1CCCO1 (stereo unspecified) | – | inactive: -15.2%
28 | CC(=O)C(c1ccccc1)C(c1ccccc1)C(C)[N+](=O)[O-] (stereo unspecified) | inconclusive [inhibitor, full curve, poor fit] | –
29 | C#CCOCCOCCOCCNc1nc(N2CCN(C(=O)C([C@@H](C)CC)n3cc(C(N)CC(C)C)nn3)CC2)nc(N2CCN(C(=O)[C@H](CCC(=O)O)n3cc(C(N)[C@H](C)CC)nn3)CC2)n1 (stereo partly specified) | – | inactive: 0%
30 | COCCn1c(-c2cc(OC)c(OC)c(OC)c2)nc2oc3ccccc3c(=O)c2c1=O | – | inactive: -27.2%
31 | CC(C)(C)c1ccc(CSc2cnn(C(C)(C)C)c(=O)c2Cl)cc1 | inconclusive [inhibitor, single point] | –
32 | COc1ccccc1COCC(O)CNCCc1ccc(C(F)(F)F)cc1 (stereo unspecified) | inconclusive [inhibitor, single point] | –
33 | CC(c1ccccc1)n1cc(C(=O)NCCCn2ccnc2)nn1 (stereo unspecified) | inconclusive [inhibitor, partial curve, poor fit] | –
34 | CCOc1ccc2nc(N3C(=O)C(O)=C(C(=O)c4ccco4)C3c3ccco3)sc2c1 (stereo unspecified) | – | inactive: 53.3%
35 | CC1=NN(/C(=N\c2nnc(C)s2)Nc2ccccc2)[C@H](c2ccc(C)cc2)S1 | active: 8.28 µM | –
36 | Nc1nc(NCc2ccco2)nc(Nc2ccc(F)cc2)c1[N+](=O)[O-] | inconclusive [inhibitor, partial curve, poor fit] | –
37 | O=C(OCC(=O)N1CCN(S(=O)(=O)c2ccc(Cl)cc2)CC1)c1ccc([N+](=O)[O-])o1 | inconclusive [inhibitor, single point] | –
38 | CCn1c(SCC(=O)Nc2ccccc2F)nc2c(c1=O)SC(C)C2 (stereo unspecified) | inconclusive [inhibitor, single point] | –
39 | O=C(CCC1CCCC1)NCCS(=O)(=O)N1CCN(c2ccc(F)cc2)CC1 | inconclusive [inhibitor, single point] | –
40 | O=C(Nc1ncccc1O)c1cccc(S(=O)(=O)N2CCCC2)c1 | – | inactive: 1.71%
41 | Cc1ccc(S(=O)(=O)c2c(C)cc(C)nc2Oc2cccc(C)c2C)cc1 | inconclusive [inhibitor, single point] | –
42 | CCNc1nc(OC)nc(Oc2ccc(=O)n(-c3ccccc3)n2)n1 | active: 0.928 µM | –
43 | Brc1ccc2ncnc(Nc3cccc4ccccc34)c2c1 | inconclusive [inhibitor, partial curve, poor fit] | –
44 | COc1ccc(NC(=O)CC23CC4CC(CC(Br)(C4)C2)C3)c(OC)c1 | – | inactive: 20.5%
45 | CCN(Cc1nc2cc(Cl)ccc2c(=O)[nH]1)C(=O)C1CC(=O)N(c2cccc3ccccc23)C1 (stereo unspecified) | active: 10.4 µM | –
46 | Oc1ccc(COC2CCCC2)c2cccnc12 | active: 1.31 µM | –
47 | CCn1c(COc2ccc(Cl)cc2)nnc1SCC(=O)Nc1ccc2c(c1)OCCO2 | inconclusive [inhibitor, partial curve, poor fit] | –
48 | CN(C)CCNc1ncnc2oc(-c3ccccc3)c(-c3ccccc3)c12 | inconclusive [inhibitor, single point] | –

Row | SMILES | Potency | activity change, negative = inhibition
49 | O=C(CSc1n[nH]c(-c2ccccc2)n1)N1CCCC1 | – | inactive: 53%
50 | CCc1ccc2[nH]c(=O)c(CN(CC3CCCO3)C(=S)NCc3ccco3)cc2c1 (stereo unspecified) | inconclusive [inhibitor, full curve] | –
51 | CC(C)NCC(O)c1ccccc1Cl (stereo unspecified) | active: 7.57 µM | –
52 | Cc1ccccc1NC(=O)Cc1nc(COC(=O)c2cc(Cl)ccc2O)cs1 | – | inactive: -3.84%
53 | CNC(=O)CSc1nnc(-c2ccco2)n1-c1cccc(C)c1 | – | inactive: -20.6%
54 | Cc1cnc(C(=O)N2CCCC(N3CCN(c4ccccc4F)CC3)C2)cn1 (stereo unspecified) | inconclusive [inhibitor, full curve, poor fit] | –
55 | CCC(C)(C)n1nnnc1C(c1ccc(O)c(OC)c1)N1CCN(c2nc3ccccc3s2)CC1 (stereo unspecified) | inconclusive [inhibitor, single point] | –
56 | COc1ccc(CCN(C)C(=O)CCCN2C(=O)c3cccc4cccc(c34)C2=O)cc1OC | inconclusive [inhibitor, single point] | –
57 | O=C(Nc1cccc2ccccc12)N1CCN(Cc2ccccc2)CC1 | – | inactive: -15.3%
58 | CC(C)(C)c1ccc(C(=O)NCCCNC(=O)c2ccco2)cc1 | inconclusive [inhibitor, single point] | –
59 | O=c1cc(-c2ccccc2)c2ccc(O)c(CN3CCCCC3)c2o1 | active: 10.4 µM | –
60 | Nn1c(-c2cccc(Br)c2)n[nH]c1=S | – | inactive: 13.8%
61 | Cc1ccc(S(=O)(=O)c2c(N)n(C)c3nc4ccccc4nc23)cc1 | inconclusive [inhibitor, partial curve, poor fit] | –
62 | Cc1ccc(-c2nnc(N3CCCCC3)c3ccccc23)cc1 | inconclusive [inhibitor, single point] | –
63 | CCN(CC(=O)Nc1cc(Cl)ccc1C)C(=O)c1ccc(=O)n(Cc2ccccc2)n1 | inconclusive [inhibitor, single point] | –
64 | CCC(CC)C(=O)Nc1c(C(=O)N2CCN(c3ccccc3)CC2)oc2ccccc12 | active: 10.4 µM | –
65 | O=c1[nH]ncn1-c1ccc(Br)cc1 | – | inactive: 6.1%
66 | COc1ccc(C(=O)CCC(=O)NCCc2c[nH]c3ccccc23)cc1OC | inconclusive [inhibitor, single point] | –
67 | COc1ccc(N2C(=O)c3ccccc3NC2c2ccc(OC)c(Cn3nnc4ccccc43)c2)cc1 (stereo unspecified) | active: 11.7 µM | –
68 | Cc1ccc(Nc2ncc3c(n2)CC(C)CC3=O)c(C)c1 (stereo unspecified) | – | inactive: 288%
69 | O=c1c2ccccc2[nH]c(=S)n1-c1cccc(S(=O)(=O)N2CCCC2)c1 | – | inactive: -22.2%
70 | CC(C)[C@H](NC(=O)c1ccc(F)cc1)C(=O)N(C)Cc1cccs1 | – | inactive: -25.9%
71 | Cc1cccc(NC(=O)CN2C(=O)CSC2=O)c1 | inconclusive [inhibitor, single point] | –
